This passage reports switch fluorescence ratio results from the supplement of paper PMC10126150.

Sequences with one replicate were seen in a single cluster, so their values are uncertain.

In the series the test system is ATP. The series can be described thus: switch fluorescence ratio, 500 uM ATP over buffer (Cy3 cluster intensity, sum of 5 cycles each) (fold (ratio)); higher = stronger signal-on switching upon ATP binding; sequences stand for … in TCGTCGGCAGCGTCAGATGTGTATAAGAGACAGTTTTTTTTTTTTTTTTTTTTTTTTT…TC. Conditions: aptamer strand: ATP DNA aptamer (quencher-CACCTGGGGGAGTATTGCGGAGGAAGG + anchor), 100 nM annealed; ATP concentration: 500 uM; one replicate. In a few lines:
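Between each of five buffer/ATP cycles, the flow-cell was stripped with NaOH and re-annealed. Each cycle imaged Cy3-labelled switching-strand clusters, annealed to 100 nM quencher-labelled ATP aptamer on a modified Illumina MiSeq flow-cell, first in selection buffer and then after 15 min with 500 uM ATP at 22 °C. The fluorescence ratio is summed target-cycle over summed buffer-cycle Cy3 intensity per cluster, averaged per switch-domain sequence, with clusters outside 100-1000 RFU excluded.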
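Further: ATP exposure 15 min at 22 °C before imaging.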

Consider CTCTGGCTAG, for which the switch fluorescence ratio was 1.08.

In the case of ATCTTTTAGT, the switch fluorescence ratio was 1.03. As for CAGCCTGTCA, the switch fluorescence ratio stood at 1. As for TGATAGATTC, the figure is 0.982; as for TCAGGCAGAA, 1. Next, GACTGTGTAA: 0.997; TAGGACTCTT: 1.02. Turning to TCAAAACACT, the switch fluorescence ratio turned out to be 1.02.

Consider GTTAATCCTG, for which the switch fluorescence ratio is 0.987. Turning to ATAGTCAAAT, the switch fluorescence ratio stood at 0.955. Next, GGTTAGGGCC: 1.2; GAACAATCG: 1.04; GAAGTTAGAG: 0.94. Next, ACGAGGTAAA: 1.02; CTGCGAGCGG: 1.04; GACGTGATTG: 0.994. As for AAAAGCTCCA, the figure is 1; as for AGCGCATTCG, 1.04. As for TTAAGAACCG, the switch fluorescence ratio was found to be 1.03. As for CTAGTAAATG, the figure is 0.991; as for AATTCGTTCG, 1.03; as for GACGCCAAGG, 1.1. Next, TTGGGTAACG: 1.01; CTCTGCGAAT: 4.21; TGGAGGAAGG: 1. Next, GACGCTATCC: 2.47. As for GTGGCAAGTA, the switch fluorescence ratio stood at 1.09. For the sequence ACGTGCGTAT, the switch fluorescence ratio is 1.02. For CAGCCGTATG, the switch fluorescence ratio stood at 0.961. Turning to GCTCCCCGAT, the switch fluorescence ratio turned out to be 1.9. As for GACTCTTATA, the figure is 1.05; as for AGCGAAGTGG, 1.08.

Consider GCGGATCTCA, for which the switch fluorescence ratio came out at 1.04. As for AACGGCGCAC, the figure is 1.25; as for TAAAATTCAG, 0.993. As for CTTTTAGGG, the figure is 0.988; as for TACGGACGTC, 0.978. As for ATCGCGTCAA, the figure is 1.06; as for TTCCGGGG, 1.39; as for GGCAGTTGTT, 0.958. As to GTTGAGCATA, the switch fluorescence ratio came out at 1.03. Regarding TCATTTTCGC, the switch fluorescence ratio was 0.986. Take ATCTTTTTAA: the switch fluorescence ratio was found to be 1.

As to CATTCGATGG, the switch fluorescence ratio was 1.02. Next, CTCACGCTTA: 2.55; TATAGTTACC: 1.11. As for TCCGCGTGCA, the figure is 1.17; as for AAGTCACAAT, 1.06; as for AAGTGCTATG, 1.06.

As to TGCTTATAAT, the switch fluorescence ratio came to 1. As for TAGAGTTTTC, the figure is 1.03. Next, AAGTTTGTA: 0.956. Consider TGCGCGTGAC, for which the switch fluorescence ratio is 1.06. Regarding CGCTAAAGGC, the switch fluorescence ratio is 1.15. Next, CTTAGTGTAC: 1.07; GTAGGTAAAA: 0.982.

Regarding AATTAGCATG, the switch fluorescence ratio turned out to be 1.01.

Take AACGGGTGGG: the switch fluorescence ratio came to 0.991. As for AATCTACGGC, the figure is 1.1; as for TCTGTGGTCC, 0.942; as for CGCCAGGTAA, 1.21. Next, AGCGTGGGAG: 1.03; TCAAAAATGG: 1. Next, CTCCGACAAA: 4.17; TTAACCTTCA: 2.92. In the case of ACTCGTGCAT, the switch fluorescence ratio came to 1.37. As for CCATAGCGGA, the figure is 2.72; as for CGGAGAAAGC, 1.26; as for GCCAGGGAAC, 1.03. Next, TTATTGTGCA: 0.995.

In the case of TAGGAGGTAG, the switch fluorescence ratio came to 0.996. As to ACGTTGCTG, the switch fluorescence ratio was determined as 0.963. Next, CGCCTTGTGC: 1.05. As for CGAGGGTGGT, the figure is 1.02.

With TGGTAGGAAC, the switch fluorescence ratio came out at 1.02. GAGGGACCAC: the switch fluorescence ratio came to 1.02.

As to TCGTGATTCC, the switch fluorescence ratio is 1.08. As for AGAGACTATC, the figure is 0.997; as for TGTGATCTTG, 0.982.
